Data: patent publication US20140093592A1, “[…] THE TREATMENT OF TREATMENT-[…] TREATMENT-RESISTANT DEPRESSION” (Janssen Pharmaceutica NV, priority 2012, published 2014)

System: adult subjects with treatment-resistant depression (TRD)
Test: Treatment Emergent Adverse Events (TEAEs), same clinical study

SMILES: CN[C@]1(c2ccccc2Cl)CCCCC1=O.Cl [Esketamine, (S)-2-(2-chlorophenyl)-2-(methylamino)cyclohexanone hydrochloride]
- TEAE nausea, patients (0.2 mg/kg): 25%
- TEAE nausea, patients (0.4 mg/kg): 10%
